Article PMC4336329 (PLoS ONE, 2015)
The campaign covered roughly 310,000 compounds. About 14,000 (4.5%) showed an effect of 50% or more. Effects have a minus sign here. Some of the results follow.

Biological target: human ether-à-go-go-related gene (hERG) potassium channel (human, UniProt Q12809)
Experiment: primary screen, population patch clamp on CHO cells stably expressing hERG
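Also: peak tail current of the secondary pulse compared with the same well before compound.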

Chain of human ether-à-go-go-related gene (hERG) potassium channel (Q12809 whole entry, looked up): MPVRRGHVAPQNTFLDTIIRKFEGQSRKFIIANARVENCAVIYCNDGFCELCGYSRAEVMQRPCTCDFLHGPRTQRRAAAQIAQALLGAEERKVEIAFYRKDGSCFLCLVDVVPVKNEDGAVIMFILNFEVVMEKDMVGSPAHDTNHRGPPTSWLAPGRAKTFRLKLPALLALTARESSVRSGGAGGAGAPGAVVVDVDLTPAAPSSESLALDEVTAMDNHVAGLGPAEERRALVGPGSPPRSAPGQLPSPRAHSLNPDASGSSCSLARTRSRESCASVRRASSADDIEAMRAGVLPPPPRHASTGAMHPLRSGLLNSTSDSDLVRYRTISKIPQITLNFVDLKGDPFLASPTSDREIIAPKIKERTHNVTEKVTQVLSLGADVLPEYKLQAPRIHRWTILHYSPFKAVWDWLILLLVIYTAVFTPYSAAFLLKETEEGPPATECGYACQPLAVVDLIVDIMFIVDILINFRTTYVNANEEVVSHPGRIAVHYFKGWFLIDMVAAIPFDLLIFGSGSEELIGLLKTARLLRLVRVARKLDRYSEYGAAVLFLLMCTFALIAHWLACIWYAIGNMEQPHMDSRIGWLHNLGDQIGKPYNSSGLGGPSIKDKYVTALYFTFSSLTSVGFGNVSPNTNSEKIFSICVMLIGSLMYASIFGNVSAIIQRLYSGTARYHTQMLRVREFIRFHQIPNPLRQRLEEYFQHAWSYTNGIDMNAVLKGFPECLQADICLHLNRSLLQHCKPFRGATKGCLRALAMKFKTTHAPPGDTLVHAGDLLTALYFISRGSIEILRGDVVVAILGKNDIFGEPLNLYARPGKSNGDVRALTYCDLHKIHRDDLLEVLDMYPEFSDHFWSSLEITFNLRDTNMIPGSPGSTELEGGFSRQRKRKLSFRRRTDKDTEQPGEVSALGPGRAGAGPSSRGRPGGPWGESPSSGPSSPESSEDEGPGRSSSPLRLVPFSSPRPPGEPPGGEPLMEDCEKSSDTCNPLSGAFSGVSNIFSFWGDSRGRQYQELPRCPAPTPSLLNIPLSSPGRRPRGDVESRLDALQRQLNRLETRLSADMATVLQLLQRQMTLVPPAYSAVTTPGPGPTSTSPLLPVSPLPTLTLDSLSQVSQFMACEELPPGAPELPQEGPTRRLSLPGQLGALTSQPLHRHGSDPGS

| SMILES | hERG current change (%, negative = inhibition) at 10uM [%] |
| --- | --- |
| Cc1nc(Nc2ccccc2)sc1-c1ccccc1 | 1.73 |
| CCCCn1c(N)c(N(CCOC)C(=O)CSc2nnc(C)n2-c2ccc(OC)cc2)c(=O)[nH]c1=O | 22.1 |
| O=C(C1CCN(S(=O)(=O)c2cnc[nH]2)CC1)N1CCN(c2ncccn2)CC1 | 3.57 |
| COc1ccc(S(=O)(=O)N2CCN(C(=O)CNC(=O)c3ccc4c(c3)OCO4)CC2)cc1 | 15.4 |
| COc1ccc(CN2CC(=O)N(c3cc(Cl)ccc3C)C2=S)cc1OC | 12.8 |
| Cc1ccc(CNC(=O)Cn2ncn3cccc3c2=O)cc1 | 12.8 |
| Cc1ccc2nc(CSc3nnc4ccccn34)cc(=O)n2c1 | 13.2 |
| O=C(Nc1ccccc1Cl)c1sccc1-c1ccccc1 | -2.39 |
| CN(C)S(=O)(=O)c1ccc(Oc2ccccc2)cc1 | -38.1 |
| CCN1CCSc2ccc(C(=O)NCc3ccccc3Br)cc21 | -5.94 |
| O=C(NC1CCCC1)C(c1cccs1)N(Cc1ccco1)C(=O)c1csnn1 (stereo not drawn) | 4.25 |
| Cc1ccc(C(OCC(O)CN2CCCCC2CO)c2ccccc2)cc1 (stereo not drawn) | -62.8 |
| CC(C)c1onc(C(=O)Nc2cccc(O)c2)c1[N+](=O)[O-] | 12.4 |
| CC1CC(Nc2ccccc2)=CC(=O)O1 (stereo not drawn) | 24.7 |
| CCC(CO)Nc1ncnc2onc(-c3ccc(F)cc3)c12 (stereo not drawn) | 24.4 |
| NC(=O)c1ccsc1NC(=O)c1ccc(S(=O)(=O)N2CCCc3ccccc32)cc1 | 2.02 |
| CCN(CC)Cc1ccc(NC(=O)c2sc3cc(Cl)ccc3c2Cl)cc1 | -6.35 |
| CC1(CCc2ccc(O)cc2)NC(=O)NC1=O (stereo not drawn) | 0.765 |
| NC(=O)N/N=C/c1ccc2cccc(OCc3ccccc3)c2n1 | -12.5 |
| Cc1cc(C)nc(SCC(=O)N2CCc3ccccc32)n1 | 11.7 |
| Cc1ccc(NC(=O)c2cccc(OCc3c(C)noc3C)c2)c(C)c1 | -12.8 |
| COC(=O)c1ccc(CN(C)S(=O)(=O)c2ccc(C)cc2)o1 | -12.3 |

| SMILES | hERG current change (%, negative = inhibition) at 10uM [%] |
| --- | --- |
| O=C(c1ccc(F)cc1)N1CCN(c2ccc([N+](=O)[O-])cc2-n2cccc2)CC1 | -65 |
| CC1CCc2c(sc(NC(=O)CCC(=O)O)c2C(=O)NC2CC2)C1 (stereo not drawn) | 18.1 |
| OCCNc1nc(N2CCCC2)nc(N2CCCC2)n1 | -2.85 |
| COc1ccc(C)cc1Nc1nc(-c2c(C)[nH]c3ccccc23)cs1 | 2.7 |
| CC(C)c1ccc(OCc2ccc(C(=O)N3CCCC3)o2)cc1 | -20.3 |
| CN1C2C=C3C(C#N)=C(N)C(C#N)(C#N)[C@@H](c4cccs4)C3C1CC2 (stereo partly drawn) | 5.18 |
| Cc1cccc(C(=O)OCC(=O)Nc2ccccc2C(=O)NC2CC2)c1 | 4.08 |
| CCCCOC(=O)/C(=C\c1ccc([N+](=O)[O-])o1)NC(=O)c1ccccc1 | -19.8 |
| O=C(NNC1=Nc2cccc3cccc1c23)c1ccc(Br)cc1 | 4.78 |
| COc1cc([C@@H]2c3cc4c(cc3[C@@H](O)[C@@H](CO)[C@@H]2CO)OCO4)cc(OC)c1O[Si](C)(C)C(C)(C)C | 4.66 |
| Fc1ccccc1-c1nc(NCc2ccco2)c2ccccc2n1 | -2.1 |
| Cc1ccc(S(=O)(=O)N2CCN(CCc3ccccc3)CC2)c(C)c1.O=C(O)C(=O)O | -6.72 |
| CS(=O)(=O)N(CCc1ccccc1)CC(=O)NCc1ccncc1 | -4.22 |
| COc1ccc(C(=O)Nc2nc(C)c(C)s2)cc1OC | -22.6 |
| C[C@H](NS(=O)(=O)c1ccccc1)C(=O)OCC(=O)NC(=O)Nc1ccc2c(c1)OCCO2 | 5.22 |
| COc1ccc(Oc2nc(-c3ccccn3)nc3ccccc23)cc1 | -31.9 |
| Cc1ccc(C)c(-n2c(-c3ccc4c(c3)OCO4)n[nH]c2=S)c1 | 6.65 |
| O=C(NN1C(=O)C2C3C=CC(C3)C2C1=O)C(O)c1ccccc1 (stereo not drawn) | 12.4 |
| Cc1cc(NC(=O)CN2C(=O)/C(=C/c3ccccc3F)SC2=S)no1 | 9 |
| O=C(Oc1cccc(NC(=O)c2ccco2)c1)c1cccc(S(=O)(=O)N2CCCC2)c1 | -30.8 |
| O=C(NCCCN1CCCC1)c1ccc(CS(=O)(=O)c2ccc(Br)cc2)o1 | -16.7 |
| c1ccc(-c2ccccc2-c2nc(-c3cccnc3)no2)cc1 | -2.34 |

| SMILES | hERG current change (%, negative = inhibition) at 10uM [%] |
| --- | --- |
| COc1cc(OC)c(C=O)c(OC(=O)N(C)C)c1 | 3.32 |
| CC(C)NC(=O)CCN1C(=O)c2ccccc2Sc2ncccc21 | -1.32 |
| COC(=O)[C@@H]1C[C@@]2(O)[C@@H](O)[C@@H](O)[C@@H](O)C[C@H]2N1Cc1ccc(C)s1 | 18.8 |
| O=C(Nc1ccc(N2CCCCC2)cc1)c1ccc(F)cc1 | 15.7 |
| S=C1N(c2ccccc2)C(c2ccccc2)N2CCCN12 (stereo not drawn) | 3.73 |
| Cc1ccccc1CC(=O)NC1CCCCCC1 | 19.1 |
| O=C(Nc1ccc(F)cc1F)C1CC(=O)N(Cc2ccccc2)C1 (stereo not drawn) | -3.13 |
| COc1cccc(N(CC(=O)NCCSc2ccccn2)S(=O)(=O)c2ccccc2)c1 | -20.5 |
| COc1ccc(CCn2nnnc2C(c2ccc(Cl)cc2)N2CCN(C)CC2)cc1OC.Cl (stereo not drawn) | -11.6 |
| COc1ccc(CNC(=O)c2ccc(=O)oc2)cc1OC | 10.3 |
| CCc1ccc(C(=O)NNc2cc(Cl)cc(Cl)c2)cc1 | 7 |
| CCN(CC(=O)Nc1c(F)cccc1F)C(=O)CCCc1cccs1 | -15.4 |
| Cc1[nH]c2ccccc2c1C(=O)CSc1ccccn1 | -7.42 |
| COc1cc2c3c(c1)/C(=C1/SC(NC(C)=O)=NC1=O)C(=O)N3C(C)(C)C=C2C | -1.47 |
| CC(=O)Nc1ccc(S(=O)(=O)NCCC(=O)Nc2cc(C)ccn2)cc1 | 7.68 |
| Cc1cc(C)c(NC(=O)C2CC(=O)N(Cc3ccccc3)C2)c(C)c1 (stereo not drawn) | 8.57 |
| CSc1cccc(NC(=O)CN(c2ccc(C)cc2C)S(C)(=O)=O)c1 | -7.15 |
| Cc1ccc2[nH]c3nc(SCC#N)nnc3c2c1 | 18.8 |
| COc1cccc(CN2CCNC(=O)C2CC(=O)N(C)C2CCOCC2)c1OC (stereo not drawn) | 8.49 |
| Nc1nc(-c2ccc([N+](=O)[O-])cc2)c(C(=O)Nc2ccc(Cl)cc2)s1 | 12.4 |
| CCCSc1nc(=S)n(Cc2ccccc2)c(C)c1C(C)=O | -25.3 |
| c1ccc(C2CCCN(Cc3nc(CC4CC4)no3)CC2)cc1 (stereo not drawn) | 2.97 |

| SMILES | hERG current change (%, negative = inhibition) at 10uM [%] |
| --- | --- |
| COc1ccc(N2CC(NS(=O)(=O)c3ccc4ccccc4c3)CC2=O)cc1 (stereo not drawn) | 0.699 |
| Nc1ccc2nc3c(=O)n(C4CCCCC4)c(=O)[nH]c3nc2c1 | -0.914 |
| O=c1[nH]n2cc(-n3cc([N+](=O)[O-])cn3)cnc2c1Br | 10.6 |
| O=C(Cn1nc(C(=O)O)c2ccccc2c1=O)Nc1ccc(F)cc1F | 11.8 |
| O=S(=O)(Nc1nc2ccccc2nc1Cl)c1ccc2c(c1)OCCO2 | 6.88 |
| COc1ccc(/C=N/OCC(=O)N(Cc2ccc(OC)cc2)c2ccccc2C(=O)O)cc1 | 1.64 |
| Cc1ccc(NC(=O)c2ccco2)c(NC(=O)COc2ccccc2)c1 | -19.6 |
| CC(C)c1ccc(CNCc2ccccc2)cc1.Cl | -25.2 |
| Cc1ccc(/C=C2\Oc3cc(OCC(=O)NN)ccc3C2=O)o1 | 4.58 |
| Cc1cc(C)cc(OCC(=O)Nc2ccccc2N2CCCCC2)c1 | -0.491 |
| O=C(c1cccc(Cl)c1)N1CCC(=O)N(C(COCc2ccccc2)Cc2ccccc2)CC1 (stereo not drawn) | -51.9 |
| COc1cccc(C2C(C(N)=O)=C(C)Nc3nc(-c4cccc(Cl)c4)nn32)c1 (stereo not drawn) | -20.2 |
| CSc1ccccc1C(=O)C1CCCN(Cc2ccn[nH]2)C1 (stereo not drawn) | -8.34 |
| CCC(=O)Nc1ccc(C(=O)NNC(=O)C2CCCCC2)cc1 | 2.13 |
| CCN(CCO)Cc1csc2ccc(Cl)cc12.Cl | -4.52 |
| Cc1nn(Cc2ccc(Cl)cc2Cl)c(Cl)c1/C=N/NC(=O)CNc1cccc(C(F)(F)F)c1 | 9.72 |
| Cc1c(C(=O)Oc2ccc(-c3cnc4ccccc4n3)cc2)cccc1[N+](=O)[O-] | 18.2 |
| COC(=O)C1=C(O)C(C(=O)OC)C(c2ccc(C)cc2)C(C#N)(C#N)C1c1ccc(C)cc1 (stereo not drawn) | 1.83 |
| O=C(CN1CCN(c2ccc(F)cc2)CC1)N1N=CCC1c1ccccc1 (stereo not drawn) | -13.3 |
| O=C(NC1=NCCS1)c1ccccc1OCc1ccc(F)cc1 | 17.3 |
| CCOC(=O)C1CCCN(C(=O)c2cc(S(=O)(=O)Nc3ccccc3OC)ccc2C)C1 (stereo not drawn) | -13.9 |
